Assay results: ChEMBL document CHEMBL4888484, “Replenishing the malaria drug discovery pipeline: Screening and hit evaluation of the MMV Hit Generation Library 1 (HGL1) against asexual blood stage Plasmodium falciparum ,using a nano luciferase reporter read-out” (2022)
Among all 150,000 compounds or so, about 540 (0.36%) showed an effect of 50% or more. The list shows a part of the results.

The molecules below were run on Plasmodium falciparum (assay: Primary screen in NF54 nanoGlo assay, in single point, at 2uM, 72h; a lower Z score goes with more inhibition). Settings: timepoint 72 hour.
Assay type: functional, Erythrocyte
`CCc1nc2c(c(N(C)Cc3cc(C4CC4)[nH]n3)n1)CCNCC2` was tested, and the “% Inhibition” value was -9% and the Z score was 1.62.
With `CCOC(=O)CN1CCCN(c2nc3ccccc3n2C)CC1` the “% Inhibition” value was 3% and the Z score was -0.36.
With `Cc1c(Br)c(C(=O)N[C@@H](C)Cc2ccco2)nn1C` the “% Inhibition” value was -3% and the Z score was 0.62.
In the case of `CC(C)c1csc(CCNC(=O)Nc2cc(-c3cccnc3)nn2C)n1`, the “% Inhibition” value is reported as -2% and the Z score is reported as 0.26.
In the case of `O=C(Cn1c(=O)cnc2ccccc21)N1CC[C@H](c2ccccc2)[C@H](CO)C1`, the “% Inhibition” value is reported as -8% and the Z score is reported as 1.33.
`CC(C)CNC(=O)c1coc(CN2CCN(Cc3ccccc3F)CC2)n1` was tested, and the “% Inhibition” value was -1% and the Z score was 0.12.
With `CC(=O)N1CCC[C@H]1c1nc(CCOc2ccc(F)cc2)no1` the “% Inhibition” value was -4% and the Z score was 0.52.
In the case of `Cc1cc2c(cc1C)N(CC(=O)Nc1cccc(F)c1)C(=O)[C@H]1CCCC1=N2`, the “% Inhibition” value is reported as 0% and the Z score is reported as 0.05.
In the case of `O=C(c1ccc(F)cc1)N1CC(Oc2ccccc2-c2nc(-c3cnccn3)no2)C1`, the “% Inhibition” value is reported as -17% and the Z score is reported as 3.04.
For `N#CC1(C(=O)N2CC(O)C2)CCCCC1`, the “% Inhibition” value was 0% and the Z score was -0.04.
For `CC(=O)N1CCc2c(NC(=O)[C@@]3(C)CCNC(=O)C3)cccc21`, the “% Inhibition” value was -9% and the Z score was 1.1.
With `C[C@H]1CCN(C(=O)C2(C)COC2)CC12CCC2` the “% Inhibition” value was -10% and the Z score was 1.93.
In the case of `CN(c1ccccc1)S(=O)(=O)NC(=O)c1coc(C2CCCC2)n1`, the “% Inhibition” value is reported as -4% and the Z score is reported as 0.35.
`c1ccc(-c2csc(N3CCC(c4ccccc4)CC3)n2)cc1` was tested, and the “% Inhibition” value was -17% and the Z score was 1.86.
For `Cc1cnc(NCCn2cnc(C)c2C)nc1N(C)C`, the “% Inhibition” value was -1% and the Z score was 0.15.
In the case of `CN1CC[C@H](NC(=O)N(Cc2ccncc2)C2CCCCC2)C1=O`, the “% Inhibition” value is reported as -17% and the Z score is reported as 1.62.
In the case of `C#CCN(Cc1c[nH]nc1-c1cccnc1)CC1CC1`, the “% Inhibition” value is reported as -9% and the Z score is reported as 0.91.
For `Cc1cc(C)n(Cc2ccc(C(=O)NCc3ccc(C)o3)o2)n1`, the “% Inhibition” value was -15% and the Z score was 2.12.
In the case of `Cc1nnc(N2CCN(CC(=O)N3CCCC3)CC2)c(C#N)c1C`, the “% Inhibition” value is reported as -1% and the Z score is reported as 0.16.
With `O=C(c1cc(NCC[C@@H]2C[C@@H]3C=C[C@H]2C3)ccn1)N1CCOCC1` the “% Inhibition” value was -5% and the Z score was 0.62.
In the case of `Cc1ccc(C)n1CC(=O)N1CCC(c2nc3ccccc3o2)CC1`, the “% Inhibition” value is reported as -18% and the Z score is reported as 2.27.
With `Cc1ccccc1C(=O)N[C@@H]1CCCC[C@H]1NC(=O)C1CCN(S(=O)(=O)C[C@]23CCC(CC2=O)C3(C)C)CC1` the “% Inhibition” value was 0% and the Z score was -0.02.
In the case of `CC1CC1C(=O)NS(=O)(=O)c1ccc2c(c1)OCCCO2` (stereo unspecified), the “% Inhibition” value is reported as -1% and the Z score is reported as 0.2.
In the case of `CCCCN(Cc1c[nH]cn1)C1CCCCCC1`, the “% Inhibition” value is reported as 12% and the Z score is reported as -1.63.
For `O=C(Nc1ccccc1)N[C@H](c1ccccc1)C1(CO)CCOCC1`, the “% Inhibition” value was 12% and the Z score was -1.39.
`CC(C)c1nc(CNC(=O)c2ccc(OC[C@@]3(C)CCCNC3)nc2)no1` was tested, and the “% Inhibition” value was 5% and the Z score was -0.62.
`Cc1nsc(NC(=O)C2CC2c2ccc3c(c2)OCCO3)c1C#N` (stereo unspecified) was tested, and the “% Inhibition” value was -21% and the Z score was 2.52.
In the case of `COc1ccc(/C=C(\C(=O)N2CCCCCC2)n2ccccc2=O)cc1`, the “% Inhibition” value is reported as 28% and the Z score is reported as -3.12.
In the case of `Cn1c(=O)n(CC(=O)N2CCC[C@H]2c2cccc(F)c2)c2ccccc21`, the “% Inhibition” value is reported as -12% and the Z score is reported as 1.57.
With `CCC(=O)N1CCCC(C(=O)NC(c2ccccc2)C(C)C(=O)OC)C1` (stereo unspecified) the “% Inhibition” value was 7% and the Z score was -0.93.
`Clc1ccc2c(c1)CCCN2Cc1nc(C2CC2)no1` was tested, and the “% Inhibition” value was -15% and the Z score was 2.4.
For `O=C(Nc1ccccc1F)N1CCC(n2cnc3c(Cl)cccc3c2=O)CC1`, the “% Inhibition” value was -7% and the Z score was 0.75.
`Cc1cc(C(=O)N2CC(C)OC(C)C2)on1` (stereo unspecified) was tested, and the “% Inhibition” value was 12% and the Z score was -2.2.
For `COc1ccc(OC)c(CNC(=O)c2cc3n(n2)CCCN(Cc2ccc(Cl)cc2)C3=O)c1`, the “% Inhibition” value was -12% and the Z score was 2.28.
`C[C@H](Oc1cccc(Cl)c1)c1nnc(NCc2cc3n(n2)CCCC3)o1` was tested, and the “% Inhibition” value was -6% and the Z score was 1.19.
In the case of `Cc1cc(Cl)ccc1-n1nc(CC(C)C)nc1[C@H]1CCCN(C(N)=O)C1`, the “% Inhibition” value is reported as -7% and the Z score is reported as 1.36.
`COc1ccccc1OCC(=O)Nc1ccc2c(c1)NC(=O)[C@H](C)O2` was tested, and the “% Inhibition” value was -2% and the Z score was 0.42.
For `COc1ccc(N2CCN(C(=O)c3cncnc3C3CC3)CC2)nc1`, the “% Inhibition” value was -3% and the Z score was 0.47.
In the case of `COc1ccc(OC2CCN(C3CCCC3)CC2)c(C(=O)N(C)Cc2ccc(F)cc2)c1`, the “% Inhibition” value is reported as -13% and the Z score is reported as 1.66.
With `O=C(NCC1(c2ccccc2)CC1)c1cccc(S(=O)(=O)N2CCOCC2)c1` the “% Inhibition” value was -15% and the Z score was 1.97.
In the case of `O=C(N[C@@H]1c2ccccc2C2(CCNCC2)[C@H]1O)c1ccc2ccccc2n1`, the “% Inhibition” value is reported as -15% and the Z score is reported as 1.44.
With `O=C(c1cc2ccccc2[nH]1)N1CC2(CCC2(F)F)C1` the “% Inhibition” value was 3% and the Z score was -0.47.
`Cc1c(C(=O)NCc2ccc(F)cc2)cnn1-c1nccc(-c2ccco2)n1` was tested, and the “% Inhibition” value was -4% and the Z score was 0.47.
`Cn1cnc2c1CCN(Cc1ccc(Cl)s1)C2` was tested, and the “% Inhibition” value was -6% and the Z score was 1.01.
With `O=S(=O)(CCC1CC1)Nc1n[nH]c2nc(C(F)(F)F)ccc12` the “% Inhibition” value was 2% and the Z score was -0.25.
`O=C(c1cnn2c1CCCC2)N1[C@@H]2CC[C@H]1C[C@@H](O)C2` was tested, and the “% Inhibition” value was -23% and the Z score was 2.16.
For `Cc1noc(C)c1CN1CC[C@H](CO)[C@H](NC(=O)c2ccccc2)C1`, the “% Inhibition” value was -6% and the Z score was 0.8.
For `O=C1N[C@H]2C[C@@H](C(=O)NC[C@H]3O[C@H](CCOc4ccccc41)CC[C@@H]3O)N(CC1CCCCC1)C2`, the “% Inhibition” value was -13% and the Z score was 1.89.
With `Cc1nc(-c2ccccc2)c(C(=O)n2ccnc2)s1` the “% Inhibition” value was -9% and the Z score was 1.14.
`CCN(CC(=O)N1CCCN(c2ccc(-c3ccccc3)nn2)CC1)C(=O)c1ccccc1F` was tested, and the “% Inhibition” value was -5% and the Z score was 0.7.
For `Cc1ccc(-c2csc(-c3cccn3CC(=O)NC[C@H]3CCCO3)n2)cc1`, the “% Inhibition” value was -18% and the Z score was 3.33.
With `O=C(c1cc(C2CC2)[nH]c(=O)c1)N1CC2C3CCC(O3)C2C1` (stereo unspecified) the “% Inhibition” value was 3% and the Z score was -0.5.
With `COc1ccccc1-c1cc(C(=O)Nc2ccc(F)cc2)nc2c(-c3ccccc3)c(C)nn12` the “% Inhibition” value was 5% and the Z score was -0.52.
`Cc1nc(C(=O)NCCc2c[nH]c3ccccc23)c(-c2ccc(F)cc2)s1` was tested, and the “% Inhibition” value was -3% and the Z score was 0.42.
`CCCc1ccc(OCCNC(=O)C2CCCC2)cc1` was tested, and the “% Inhibition” value was 36% and the Z score was -4.61.
`CC(=O)Nc1nc(C(=O)N[C@H](c2ccncc2)C2CC2)cs1` was tested, and the “% Inhibition” value was 0% and the Z score was -0.08.
In the case of `CC(C)CNC(=O)c1ccc(Cl)c(N2C(=O)CCS2(=O)=O)c1`, the “% Inhibition” value is reported as -13% and the Z score is reported as 1.41.
`Cn1cc(CC(=O)NCc2cccnc2)c2cccnc21` was tested, and the “% Inhibition” value was -11% and the Z score was 1.23.
For `O=C(NC[C@H]1CCS(=O)(=O)C1)c1ccccn1`, the “% Inhibition” value was -3% and the Z score was 0.57.
With `CC(=O)c1cccc(NC(=O)N(Cc2ccccc2)C2CCCCC2)c1` the “% Inhibition” value was 3% and the Z score was -0.38.
For `CCOC(=O)[C@@](C)(NC(=O)c1scnc1C)C(C)C`, the “% Inhibition” value was 8% and the Z score was -1.12.
For `CCc1noc(C2CCC(NC[C@H](O)c3ccco3)CC2)n1` (stereo partly specified), the “% Inhibition” value was -9% and the Z score was 1.16.
With `CCC(O)(CC)CNC(=O)C1(CC)COC1` the “% Inhibition” value was -6% and the Z score was 0.87.
With `c1cnc2[nH]cc(Cc3noc([C@@H]4CCOC4)n3)c2c1` the “% Inhibition” value was -6% and the Z score was 1.16.
With `O=S(=O)(NC[C@H]1CN(C2CC2)CCO1)c1c(F)cccc1Cl` the “% Inhibition” value was -13% and the Z score was 1.51.
In the case of `CON1CCC(C(=O)NC2c3ccccc3CCC2C)CC1` (stereo unspecified), the “% Inhibition” value is reported as 0% and the Z score is reported as -0.03.
With `O=C1CN(C(=O)N[C@@H](Cc2ccccc2)C(=O)Nc2ccc3c(c2)OCCO3)c2ccccc2N1` the “% Inhibition” value was -13% and the Z score was 1.71.
`CC(O)C1CCN(C(=O)NCCc2ccc(Br)o2)C1` (stereo unspecified) was tested, and the “% Inhibition” value was -14% and the Z score was 1.46.
With `CCN(C)C(=O)Oc1cccc([C@H](C)N(C)C)c1` [RIVASTIGMINE] the “% Inhibition” value was 7% and the Z score was -0.82.
In the case of `CCCc1cc(=O)n(-c2ccc(C(=O)N[C@H]3COC[C@@H]3OC)cc2)[nH]1`, the “% Inhibition” value is reported as -14% and the Z score is reported as 1.89.
`CC(C)c1ccc(N2C[C@@]34C=C[C@@H](O3)C(C(=O)O)C4C2=O)cc1` (stereo partly specified) was tested, and the “% Inhibition” value was -9% and the Z score was 1.
With `COc1ccccc1OCc1n[nH]c([C@H]2CCCN(CC(N)=O)C2)n1` the “% Inhibition” value was -1% and the Z score was 0.13.
In the case of `Cc1occc1C(=O)Nc1ccccc1-n1ccc(C(=O)O)n1`, the “% Inhibition” value is reported as 0% and the Z score is reported as 0.03.
For `COCCn1nnnc1[C@@H]1CN(CC(=O)Nc2cccc(C)c2C)CCO1`, the “% Inhibition” value was -10% and the Z score was 1.73.
In the case of `O=C(Nc1ccn(Cc2cccnc2)n1)c1cccnc1O`, the “% Inhibition” value is reported as -7% and the Z score is reported as 1.02.
`O=C(Nc1c(Cl)cccc1Cl)c1ccc(COc2ccc3c(c2)CCC3)o1` was tested, and the “% Inhibition” value was -15% and the Z score was 1.99.
`CO[C@H]1C[C@H]2CN(C(=O)COCc3ccccc3)CC(=O)N2C1` was tested, and the “% Inhibition” value was -11% and the Z score was 1.76.
`CCN(CC(=O)Nc1ccc2c(c1)OCCCO2)Cc1nc2cc(OC)c(OC)cc2c(=O)[nH]1` was tested, and the “% Inhibition” value was 3% and the Z score was -0.47.
In the case of `CC(CNS(C)(=O)=O)OC(=O)C1CC2CCC1C2` (stereo unspecified), the “% Inhibition” value is reported as -13% and the Z score is reported as 2.39.
In the case of `Cc1c(NC(=O)NCC2CCCCCCC2)c(=O)n(-c2ccccc2)n1C`, the “% Inhibition” value is reported as -11% and the Z score is reported as 1.12.
In the case of `CC(C)(C)c1ccc(OCC2CCN(C(=O)c3c[nH]c4ncccc34)CC2)nn1`, the “% Inhibition” value is reported as -12% and the Z score is reported as 1.38.
In the case of `O=C(c1csc(Nc2cc(F)cc(F)c2)n1)N1CC[C@H](O)C1`, the “% Inhibition” value is reported as 7% and the Z score is reported as -0.83.
With `Cc1noc2ncc(C(=O)N3CCC[C@@H]3CC(C)(C)C)cc12` the “% Inhibition” value was 38% and the Z score was -5.17.
